Experimental data reported in the supplement of paper PMC10369915.
The list shows a part of the results. Cut-off read from the data, not from the text of the source: active = 3.2 or more and inactive = the rest. The signal is at background level for most entries.

What was measured:
Assay in all cases: enrichment score (SH2-bound / input frequency) (ratio); bacterial display of known human phosphotyrosine sites (pTyr-Var adds point mutants) read by sequencing; higher = stronger binding; tyrosines were phosphorylated by kinases first
Settings in all cases: peptide library: pTyr-Var
SHP2 C-SH2 domain E139D = target: SHP2 C-SH2 domain E139D
[1] = target: SHP2 C-SH2 domain wild-type
SHP2 N-SH2 domain L43F = target: SHP2 N-SH2 domain L43F
SHP2 N-SH2 domain T42A = target: SHP2 N-SH2 domain T42A
SHP2 N-SH2 domain T52S = target: SHP2 N-SH2 domain T52S
[2] = target: SHP2 N-SH2 domain wild-type

Measured: enrichment score
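Note: displayed peptides selected on beads carrying the immobilized SH2 domain, with library peptides lacking any tyrosine serving as negative controls.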

AALRLYHVSDS [VIL1_Y256_K254R]
inactive: SHP2 C-SH2 domain E139D 1.06 | [1] 0.724 | SHP2 N-SH2 domain L43F 0.957 | SHP2 N-SH2 domain T42A 0.804 | SHP2 N-SH2 domain T52S 0.891 | [2] 0.939

RLGDLYEEEMR [VIM_Y150]
inactive: SHP2 C-SH2 domain E139D 0.901 | [1] 0.768 | SHP2 N-SH2 domain L43F 0.923 | SHP2 N-SH2 domain T42A 0.922 | SHP2 N-SH2 domain T52S 0.713 | [2] 1.05

KNNSIYVLANI [VNN1_Y134_V136L]
inactive: SHP2 C-SH2 domain E139D 1.71 | [1] 1.61 | SHP2 N-SH2 domain L43F 1.73 | SHP2 N-SH2 domain T42A 1.75 | SHP2 N-SH2 domain T52S 1.6 | [2] 1.65

GVASDYKCIDP [VPS13B_Y1991]
inactive: SHP2 C-SH2 domain E139D 0.781 | [1] 0.786 | SHP2 N-SH2 domain L43F 0.66 | SHP2 N-SH2 domain T42A 0.792 | SHP2 N-SH2 domain T52S 0.686 | [2] 1.28

LEFGDYHPLKP [VPS35L_Y32]
inactive: SHP2 C-SH2 domain E139D 0.678 | [1] 0.644 | SHP2 N-SH2 domain L43F 0.751 | SHP2 N-SH2 domain T42A 0.8 | SHP2 N-SH2 domain T52S 1.77 | [2] 0.7

SVMAEYGLYAA [VSX2_Y219_G223A]
inactive: SHP2 C-SH2 domain E139D 0.846 | [1] 0.697 | SHP2 N-SH2 domain L43F 1.03 | SHP2 N-SH2 domain T42A 0.836 | SHP2 N-SH2 domain T52S 1.05 | [2] 0.793

SVMAEYGLFRA [VSX2_Y219_G223R_YF]
inactive: SHP2 C-SH2 domain E139D 0.99 | [1] 0.823 | SHP2 N-SH2 domain L43F 0.96 | SHP2 N-SH2 domain T42A 0.993 | SHP2 N-SH2 domain T52S 1.14 | [2] 1.02

AEYGLYGAMVR [VSX2_Y222]
inactive: SHP2 C-SH2 domain E139D 0.672 | [1] 0.799 | SHP2 N-SH2 domain L43F 0.661 | SHP2 N-SH2 domain T42A 0.547 | SHP2 N-SH2 domain T52S 0.668 | [2] 0.972

AEFGLYGAMVR [VSX2_Y222_YF]
inactive: SHP2 C-SH2 domain E139D 0.809 | [1] 0.708 | SHP2 N-SH2 domain L43F 0.728 | SHP2 N-SH2 domain T42A 0.673 | SHP2 N-SH2 domain T52S 0.605 | [2] 0.98

AKLNIYKRKVE [VWA3B_Y918]
inactive: SHP2 C-SH2 domain E139D 0.576 | [1] 0.565 | SHP2 N-SH2 domain L43F 0.422 | SHP2 N-SH2 domain T42A 0.559 | SHP2 N-SH2 domain T52S 0.613 | [2] 0.555

KITVIYDGACQ [VWDE_Y1035]
inactive: SHP2 C-SH2 domain E139D 0.783 | [1] 0.782 | SHP2 N-SH2 domain L43F 0.578 | SHP2 N-SH2 domain T42A 0.697 | SHP2 N-SH2 domain T52S 0.592 | [2] 0.927

VREIRYQGGNR [VWF_Y1570]
inactive: SHP2 C-SH2 domain E139D 0.36 | [1] 0.362 | SHP2 N-SH2 domain L43F 0.23 | SHP2 N-SH2 domain T42A 0.315 | SHP2 N-SH2 domain T52S 0.408 | [2] 0.372

LREIRYQGGNR [VWF_Y1570_V1565L]
inactive: SHP2 C-SH2 domain E139D 0.575 | [1] 0.35 | SHP2 N-SH2 domain L43F 0.594 | SHP2 N-SH2 domain T42A 0.308 | SHP2 N-SH2 domain T52S 0.506 | [2] 0.668

VREIRCQGGNR [VWF_Y1570_Y1570C]
inactive: SHP2 C-SH2 domain E139D 0.564 | [1] 0.366 | SHP2 N-SH2 domain L43F 0.443 | SHP2 N-SH2 domain T42A 0.406 | SHP2 N-SH2 domain T52S 0.453 | [2] 0.395

GLALRCLSDHS [VWF_Y1584_Y1584C]
inactive: SHP2 C-SH2 domain E139D 0.62 | [1] 0.967 | SHP2 N-SH2 domain L43F 0.796 | SHP2 N-SH2 domain T42A 0.834 | SHP2 N-SH2 domain T52S 0.665 | [2] 1.02

CEQELYSQLVY [WAS_Y102_W97C]
inactive: SHP2 C-SH2 domain E139D 0.865 | [1] 1.42 | SHP2 N-SH2 domain L43F 0.965 | SHP2 N-SH2 domain T42A 0.823 | SHP2 N-SH2 domain T52S 0.789 | [2] 1.36

CEQELYSQLVF [WAS_Y102_W97C_YF]
inactive: SHP2 C-SH2 domain E139D 0.729 | [1] 0.698 | SHP2 N-SH2 domain L43F 0.621 | SHP2 N-SH2 domain T42A 0.696 | SHP2 N-SH2 domain T52S 0.627 | [2] 0.768

WEQELYSQLVF [WAS_Y102_YF]
inactive: SHP2 C-SH2 domain E139D 0.801 | [1] 0.922 | SHP2 N-SH2 domain L43F 0.879 | SHP2 N-SH2 domain T42A 0.897 | SHP2 N-SH2 domain T52S 0.822 | [2] 1.03

NPQKSYFIRLY [WAS_Y83]
inactive: SHP2 C-SH2 domain E139D 0.756 | [1] 0.783 | SHP2 N-SH2 domain L43F 0.639 | SHP2 N-SH2 domain T42A 0.635 | SHP2 N-SH2 domain T52S 0.627 | [2] 0.813
